The RNAGym collection of RNA variant scans (doi:10.7554/elife.90254)
The source gives no read counts; variants with many changes may rest on few reads.

B1: LINE1-mini (parent)
chain: GGCAGAGCUCAACACAGCGUGGCAAAGUGGCUGUGGCUAGACUGCC

Variants of: B1
Assay: self-cleavage, relative activity (ratio to wild type); higher = more cleavage; in vitro, sequencing; the parent is a self-cleaving ribozyme

Variant | self-cleavage
C10A A24C C45G C46A | 0
U28G G29C C37U A39G C46A | 0.01
A12C C18U U28G C31G | 0.01
G7C G33U G44C C45A | 0.15
A11G C13G U20A G36U | 0.02
A4G A12G G17A A26G G27U C42A | 0.05
C15U G21U C37G | 0
A16U C23G U28A | 0.09
C10U G19U A25C U28C U32C G40U | 0.02
G2U G5A G30U C31G A41C C46U | 0.01
U20C G40U U43A | 0.03
C3G G29A G40A | 0.04
G7C U20G C42A U43G | 0.02
G1U C3G C13A G29U | 0.05
C18U U20A G27C C31G A39C | 0.01
G1C G17U U34A | 0.02
G2A G17A C23U A26G G27A | 0.44
C3A G19A A24G C31G G33U C46U | 0.52
G5A C15U G22U | 0.16
A16G G22U G33U | 0.09
U38A A41U C42U | 0.07
C10A G19A A41C | 0.07
C15U C18G G30U | 0.08
A11C A14C G36A U38C | 0.02

Variant | self-cleavage
G2U A4C C31A A39U | 0.05
A6U G30C U32G A41C | 0.04
G7A C8U G17C G19A A25G G27U G29U G33U | 0.04
U9C U34C G35C | 0.02
G2C C31G U34C C37A | 0.1
G5A G22C G27U A41U C42A | 0.03
C10A G17A A24C C37U | 0.01
A6C U9G C13A A24U U28C C42G G44A C46A | 0.01
A6C G21A G27A C45G | 0.07
C8G C23A G40C | 0.13
G2C A12U C31G C45A | 0.01
A6G A14U G30U | 0.09
A4U C23A A25C G30C C37U | 0.03
A4C C15G U20A G27C U28G | 0.01
A4C A11U G29C A39C C42A | 0
A6G U20G G40C | 0
U9C C10A A11C | 0.02
G2U C8A A11G C13A C45A | 0
A11C G27C G40C | 0
C18A G19U A24G C31A | 0.35
G2U A14C U34G | 0.05
G33C C42G U43A | 0.03
A6G C8U U9A C37U | 0.06
G19U G44C C46U | 0.06

Variant | self-cleavage
C10A A11U C15G A26U A39C | 0.01
G29U C42G G44A C45G | 0.06
G22C A26C G44U | 0.42
C15A A25C C46G | 0.02
G7A C18U U34G C37G | 0.03
U20A G22U G27C G29C | 0.14
C15U G19A G35U C42A | 0.1
C13A A26C C37U | 0.08
G19C C23U G33A C37A | 0.09
C10G C13A G22C | 0.03
G5A A11G A24U G40A | 0.02
C3U A6U C8U U43A | 0.24
G1A C15U C23A A25U | 0.81
A26G C31U G33C | 0.04
C31G C42U C45A | 0.12
G2U C8G G17A C45U | 0.03
C3G C8A A16G G19A A25U C31G | 1.07
G1A U9G G19A G27U G36A G40U | 1.52
C18G G22U A25G G35C A41U | 0
G1A G5U G22C U43G G44U C46A | 0.04
G5A G17U C37A | 0.05
G1A G7U A26G | 0.07
G7U C8A U20C U38A | 0.09
G19U G27A G33U C46U | 0.25

Variant | self-cleavage
C3A C15U G29U G33C | 0.46
U9G A11C C13A G21U C37G | 0.01
C13U G30A G33A U34G | 0.04
A4U A39U G44C | 0.07
C3A A6C G29U | 0.23
U20A G30U A39C | 0.28
A6U C10U A14U | 0.04
G22C G36U C37A U38G C46G | 0.01
C3U C13A G21A G40U | 0.72
G1A C15U G17A C31G U38C | 0.03
A16G G21A G44C | 0.23
G22C A26C G33U | 0.04
A12C C31A U38G | 0.01
A11C G40U U43G | 0
G2C U34C C45U | 0.06
U9A U34G G40A | 0.18
C13U A14G G22U C23A | 0.11
G5C G33A G40C | 0.08
C3G G27C C37A C42A C45U | 0.01
G1A C13A G27C G36C | 0.28
C8A A11U C13U | 0.04
G7U A14G G21A G40A | 0.08
G5A C13G A26G G29A C31U | 0.04
C23A G35C C37A | 0.07

Variant | self-cleavage
G2U C23A C31U | 0.03
U9C G27C G35A | 0.02
A4C C31G G33C | 0.05
G2C G19A C45A C46A | 0.41
G1U C10A A25G G30A C46G | 0.04
A12U A16U G17A G19U A24G A26C | 0.05
G5A C13U G21C C46G | 0.03
C8U G29A G36A C37U | 0.1
C3G G36U C42G | 0.01
C18G G22C G33U | 0.03
G1A A4C G5U | 0.1
A6G C18A G19C | 0.03
A11U G27C G29U G35C | 0.04
G2A G5U C8G G17U U32G A41G | 0.02
G1C C3U C10A G21A | 0.01
A12U G19C U34A A39C U43A | 0.03
G2U A26G C31U | 0.06
G1C A4G A12G C13U G17C C37G | 0.01
C13A A24C C37G | 0.02
A14C G21U G30C | 0.08
G7A C18A G35U U43A | 0.27
G19C A26U G30A | 1.21
A16G G17C C46A | 0.66
A14C A24C C42A | 0.02

Variant | self-cleavage
C15U G27A G30A | 0.34
C8U A12C C15U C18G C23G C31A | 0
A6U C23U G44A | 0.42
G1C A6C C10A | 0.02
C3A A6U G22U C31U G35U | 0.08
G1C G27U U28G G35A C45U | 0.02
G7A A12C G29C G33C C42U | 0.08
C10A A14C A24C | 0
A4C C8A A12G G44U | 0.14
C8U C10A A16C A25C G27U | 0.01
C3A G17A G30C C46A | 0.15
G19U A24U C45U | 1.04
C13G G19U C45A | 0.12
U9A C18U A39G | 0.04
G5A U20A A25U U28C C46A | 0.07
C10G C15U G29A | 0.29
G7A U9A A16G G22A G30U | 0.03
C8U G17C A26U A41C | 0.02
C3G C18U G29C | 0.26
G7A U9G G40U | 0.05
C15A G30A U32C | 0.02
A6G C15A C42A | 0.03
G2A C31A C45A | 0.13
G1U A11G G40U | 0.01

Variant | self-cleavage
A4C C13U G22U | 0.61
G19C G30U G33U | 0.14
C3A A6G A25C | 0.3
U9G U32A G44U | 0.06
C3G A6C G17A G22U U34A | 0.09
G5C A26U G44C | 0.07
C3U C15G G22A G27C U38G | 0.02
G1U A4C C31G | 0.05
C10G C23A G27U G30C C46A | 0.04
U9G C13A G22C A25U U28C | 0.02
C3U A4C A16C G30C C37G U38C | 0.06
G2U C8U G19A G21A C45G | 0.07
C15A G19U G36C A41C | 0.02
G1A G2A A12U G29U | 2.07
A16U G36A C46U | 0.08
G2C C23A A25U G33A | 0.02
G2U A12C C37A | 0.02
C3U G35U C42A U43A C45G C46A | 0.14
G2C C15U C23U U32G | 0.11
A4U A26U U43C | 0.05
A6C A11U U28A G29A G30A | 0.1
A6G G21U C45U | 0.23
G2U U9G A12U | 0.05
